# In paper PMC7819943, “Rice protein-binding microarrays: a tool to detect cis-acting elements near promoter regions in rice”:
# The list shows a part of the results.
# Molecular target: T1, OsWOX13 (Oryza sativa, UniProt Q5QMM3 1-267)
# T1 sequence: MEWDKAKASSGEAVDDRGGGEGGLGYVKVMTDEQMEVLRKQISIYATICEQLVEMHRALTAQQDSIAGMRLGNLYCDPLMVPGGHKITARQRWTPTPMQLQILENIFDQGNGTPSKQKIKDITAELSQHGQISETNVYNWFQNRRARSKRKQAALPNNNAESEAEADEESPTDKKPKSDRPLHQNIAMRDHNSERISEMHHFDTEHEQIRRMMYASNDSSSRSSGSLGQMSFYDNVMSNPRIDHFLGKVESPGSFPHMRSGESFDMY
# Assay: protein-binding microarray (RPBM); PBS, 2% BSA, 51.3 ng/ul salmon testes DNA, 50 uM zinc acetate, 200 nM TF, 25 C, 1 h; high values mean tight binding
# Settings: protein: recombinant; tags: N-terminal polyhistidine and DsRed monomer fusion (pET32a); label: CyDye5-dUTP incorporated in the synthesized complementary strand; 3' TTTTT single-stranded linker to array surface; dsDNA, one strand shown
# In short: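 An Axon 4000B scanner gave the binding signal as per-feature fluorescence intensity in arbitrary units. This followed washing of a custom Agilent array that had been incubated for 1 h at 25 °C with 200 nM protein in PBS, 2% BSA, salmon testes DNA and 50 µM zinc acetate. The proteins were transcription factors fused at the N-terminus to polyhistidine and DsRed, expressed in E. coli BL21-CodonPlus and purified on Ni–NTA.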
row,Sequence,binding signal
1,ACTCTGATTATGGATATATTTGACCTTTTCATAGTTCTCCCGGAGTCACCTAGTGCAG,26200 fluorescence intensity (a.u.)
2,TTTCGCTAATTTGAACAAGTTTAGCAGATTGCCATGCGTACGGAGTCACCTAGTGCAG,13600 fluorescence intensity (a.u.)
3,AACTCAATTAATATTAATTAGTATGTTAATAACAAACTGACGGAGTCACCTAGTGCAG,34000 fluorescence intensity (a.u.)
4,CACAAACAGATTCCACGGTGATCCGAGTAGCAACTGGGAACGGAGTCACCTAGTGCAG,4730 fluorescence intensity (a.u.)
5,ATGTGGTACTAATTAACACTTGTTCTGTTGTTGCTAATATCGGAGTCACCTAGTGCAG,3170 fluorescence intensity (a.u.)
6,CCAGATTTGAAAATTTTGAAAACTTTCAAATCGAGATTTGCGGAGTCACCTAGTGCAG,5340 fluorescence intensity (a.u.)
7,TTAACTAATAAATAAGTATTAACTATTTATATCATATCTACGGAGTCACCTAGTGCAG,4490 fluorescence intensity (a.u.)
8,ATCCAAGATTGCAGTCACACTTTGATGCATGAATATTACTCGGAGTCACCTAGTGCAG,5860 fluorescence intensity (a.u.)
9,GAGCCTAATTAATCCATGACTAGCCTATGTGATGCTACAACGGAGTCACCTAGTGCAG,17900 fluorescence intensity (a.u.)
10,AGACTTGTTTGATTAGATTTGCCCGGAGGACAAAGCAGAGCGGAGTCACCTAGTGCAG,23000 fluorescence intensity (a.u.)
11,CCTAATTTAGTTCAAATTTCCTGCCCGTTAATATTGGCTTCGGAGTCACCTAGTGCAG,24500 fluorescence intensity (a.u.)
12,ATCATGGACTAATTAGGCTCAAAAGATTCGTCTCGCGATTCGGAGTCACCTAGTGCAG,7730 fluorescence intensity (a.u.)
13,TCTCATATGACTGATATGTTCCTCCTCCTCCTCCTTTGGTCGGAGTCACCTAGTGCAG,4670 fluorescence intensity (a.u.)
14,GATGATGATGATTTTGGTAGGAGATATGGATCGTGTTGGTCGGAGTCACCTAGTGCAG,16600 fluorescence intensity (a.u.)
15,TGAGTAATCACAGTCGATTTCTTGTTCAATTGATCTCCCTCGGAGTCACCTAGTGCAG,6130 fluorescence intensity (a.u.)
16,AAGAAGGAATAATTAACTATTTGCTACTCTTATGGGTGATCGGAGTCACCTAGTGCAG,6260 fluorescence intensity (a.u.)
17,CATAGATATTGTCATATACTCGAACAAAATAATTTTCAGTCGGAGTCACCTAGTGCAG,45000 fluorescence intensity (a.u.)
18,AATAAACTGTTTTAAATTTGGTGCCCATCGGGTGATGTGACGGAGTCACCTAGTGCAG,9920 fluorescence intensity (a.u.)
19,TTAGTTAAATTTAAAATAGTTTAACTTTGACTAAAGTTGACGGAGTCACCTAGTGCAG,5370 fluorescence intensity (a.u.)
20,CGGCCCAAATTCGTCCATCACTTCCCATCCGGCCCATTAACGGAGTCACCTAGTGCAG,3370 fluorescence intensity (a.u.)
21,CACCTGTCATATATAAACTGCGTCTTAGAGTCCGTGCTACCGGAGTCACCTAGTGCAG,4000 fluorescence intensity (a.u.)

row,Sequence,binding signal
1,CGTGACTAAATATATGATAAATGCATTGTATGAAATAGAGCGGAGTCACCTAGTGCAG,9730 fluorescence intensity (a.u.)
2,TTGAATAAACTGATGGGACGTACGTTGCCCGCCGGATTGACGGAGTCACCTAGTGCAG,8030 fluorescence intensity (a.u.)
3,CTGCATGCTAATCAATCATCTGTCAAGGATTAGTAACATACGGAGTCACCTAGTGCAG,17900 fluorescence intensity (a.u.)
4,CACTTAATTTGCATTCATGCTAATAAATTACATCTATGGTCGGAGTCACCTAGTGCAG,49100 fluorescence intensity (a.u.)
5,GTAGCATTAAATTGAAGTATAGAATAGTGGTGTTTGCATTCGGAGTCACCTAGTGCAG,5440 fluorescence intensity (a.u.)
6,TTGTAATTAAGATCATTGATTATGATACAATTAATGCATACGGAGTCACCTAGTGCAG,36700 fluorescence intensity (a.u.)
7,AGTTATGTGATTATGTTGTTGTTGTTGTTCTTGGATGTGACGGAGTCACCTAGTGCAG,8560 fluorescence intensity (a.u.)
8,TTTATTTAATTGATTCGATGAACTTTGTGCCATTAAAATTCGGAGTCACCTAGTGCAG,35000 fluorescence intensity (a.u.)
9,ACCCTAATTCTCCTAATCTCTTAGGAAATATGGAAGAAGCCGGAGTCACCTAGTGCAG,3170 fluorescence intensity (a.u.)
10,GCTCTATCACAAAATAAACTAGAGTTATGAAGCTGGATTTCGGAGTCACCTAGTGCAG,4850 fluorescence intensity (a.u.)
11,CTGATCTTCTTTAATTAGACGGACACCATGACCACCAGATCGGAGTCACCTAGTGCAG,7190 fluorescence intensity (a.u.)
12,AAAATCGATTGTAAATTGCCTTTATCGAAATTAGGATCTACGGAGTCACCTAGTGCAG,4860 fluorescence intensity (a.u.)
13,TAAACAGATGGAGATATAATTATTCATGCCGCTAATTTGTCGGAGTCACCTAGTGCAG,15900 fluorescence intensity (a.u.)
14,GAGGAAGAAGAGGGGATTGACAATGACAGGCGGGGCACACCGGAGTCACCTAGTGCAG,12800 fluorescence intensity (a.u.)
15,TGAAATAAAATTTTGAAAATTAATTTTGAAGTTGACTTTGCGGAGTCACCTAGTGCAG,13300 fluorescence intensity (a.u.)
16,GCTCGATTGCCTTTTCATCATTCACATTGTTCTTCTTCTTCGGAGTCACCTAGTGCAG,11600 fluorescence intensity (a.u.)
17,GCTTGATATAGATCATTAGATCGTTCCCATTGGTTGGCTACGGAGTCACCTAGTGCAG,8120 fluorescence intensity (a.u.)
18,ATCATGGCAAATGATTGAAACTTTGAAGTAACGTTGGTGCCGGAGTCACCTAGTGCAG,38800 fluorescence intensity (a.u.)
19,GTGCATTTCTGATTAAATATGTTGCATTGCAGCTATTGGCCGGAGTCACCTAGTGCAG,3750 fluorescence intensity (a.u.)
20,TCTAAATTTGTAGGCACTCTACATGAGGCAAGTCGTTACACGGAGTCACCTAGTGCAG,3900 fluorescence intensity (a.u.)
21,GATTCAATGATGGATTTAATAAAACTAATTTGGTATTGCTCGGAGTCACCTAGTGCAG,18700 fluorescence intensity (a.u.)
